Source: PubChem BioAssay AID360 (National Center for Advancing Translational Sciences (NCATS), 2006)
In all, about 48,000 compounds went through this assay and about 550 (1.1%) were called active. Not shown: some 4% with an inconclusive outcome. No stated cut-off is given here; in the data, active means potency below about 15 µM; inconclusive means mostly about 16 µM to 33 µM; inactive means weaker than that. The list shows a part of the results.

biological target: Lysosomal acid glucosylceramidase (Homo sapiens) (UniProt P04062); assay: Glucocerebrosidase; conditions: purified enzyme, resorufin glucoside fluorescence (screen aimed at inhibitors), 20 min;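 further: the screen sought inhibitors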
Chain of UniProt P04062 (P04062 whole entry, looked up): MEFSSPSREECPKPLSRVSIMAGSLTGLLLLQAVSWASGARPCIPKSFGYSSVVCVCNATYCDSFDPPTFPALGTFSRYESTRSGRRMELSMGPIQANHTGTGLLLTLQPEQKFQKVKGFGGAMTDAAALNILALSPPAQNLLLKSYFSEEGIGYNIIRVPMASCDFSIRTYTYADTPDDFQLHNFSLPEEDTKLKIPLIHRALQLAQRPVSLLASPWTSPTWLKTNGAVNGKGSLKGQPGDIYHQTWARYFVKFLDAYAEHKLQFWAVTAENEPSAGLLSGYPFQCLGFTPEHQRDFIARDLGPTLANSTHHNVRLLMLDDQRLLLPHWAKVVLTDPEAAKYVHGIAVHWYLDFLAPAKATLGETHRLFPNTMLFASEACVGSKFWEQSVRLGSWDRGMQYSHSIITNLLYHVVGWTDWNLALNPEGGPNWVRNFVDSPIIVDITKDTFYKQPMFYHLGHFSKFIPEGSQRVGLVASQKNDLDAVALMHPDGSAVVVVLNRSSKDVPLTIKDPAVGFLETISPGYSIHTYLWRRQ
In short: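 Wild-type enzyme at 0.2 nM final in 50mM citric acid/KH2PO4, 10mM sodium taurocholate, 0.01% tween-20, pH 5.9, with resorufin beta-D-glucopyranoside at 30 uM final. Compounds titrated, 20 min at RT, red fluorescence read; AC50 from titration.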
Potency means the concentration at half of the fitted maximal effect.

Potency, inactive:
CCOC(=O)c1ccc(NC(=O)c2ccc3c(c2)OCO3)cc1 > 76.9 µM
CNC(=O)CSc1nnc(-c2cccc(S(=O)(=O)N3CCOCC3)c2)n1-c1ccc(F)cc1 > 76.9 µM
CC(=O)N(CCO)Cc1cc2cc(C)cc(C)c2[nH]c1=O > 76.9 µM
Cc1ccc(S(=O)(=O)CCC(=O)OCC(=O)N2CC(=O)Nc3ccccc32)cc1 > 76.9 µM
Cc1cc(OCn2ccc(C(=O)O)n2)ccc1Cl > 76.9 µM
CC(=O)Nc1ccc(S(=O)(=O)N2CCSC2c2ccccc2Cl)cc1 (stereo not drawn)
COc1ccc(N2CCN(c3nc(NCCc4ccc(OC)c(OC)c4)nc(OC)n3)CC2)cc1 > 76.9 µM
c1coc(-c2nc3c4c5c(sc4ncn3n2)CCCC5)c1 > 76.9 µM
O=c1cc(N2CCc3ccccc3C2)[nH]c(=O)n1Cc1ccc(F)cc1 > 76.9 µM
Cn1c(=O)[nH]c(=O)c2c1nc(NCc1ccccc1)n2CCCc1ccccc1 > 76.9 µM
CCCNS(=O)(=O)c1ccc(CCC(=O)N2CCC(C)CC2)cc1 > 76.9 µM
CCOc1ccccc1CNC(=O)C1CCCN(c2nc3ccccc3o2)C1 (stereo not drawn) > 76.9 µM
CCC(C)c1ccc(O)c(N)c1 (stereo not drawn) > 76.9 µM
Cn1c(C(=O)NCc2ccccn2)cc2c(=O)n3ccccc3nc21 > 76.9 µM
O=C(NCCc1ccccc1)C1CCN(S(=O)(=O)c2cccs2)CC1 > 76.9 µM
Cc1ccc(-c2ccc(=O)n(CC(=O)NCCCN3CCCCC3)n2)cc1 > 76.9 µM
N#CCSc1nc(Nc2ccc3c(c2)OCO3)c2ccccc2n1
CCC(C)(C)n1nnnc1C(c1cc2cc(C)cc(C)c2[nH]c1=O)N1CCCC1 (stereo not drawn) > 76.9 µM
O=c1oc2c(CN3CCOCC3)c(O)ccc2c2c1CCC2 > 76.9 µM
CCn1nnnc1SCC(=O)NCc1ccco1 > 76.9 µM
c1coc(CNC2CCCCCCC2)c1 > 76.9 µM
Cc1nc(N2CCN(Cc3ccccc3)CC2)nc2c1C(=O)CCC2 > 76.9 µM
Nc1nncn1C(=O)c1cc(Br)ccc1Cl > 76.9 µM
Cc1csc(Sc2nc3c(c(=O)[nH]c(=O)n3C)n2CCCc2ccccc2)n1 > 76.9 µM
CCn1c(N)c(C(=O)NC2CCCCC2)sc1=S > 76.9 µM
COc1ccccc1N1CCN(C(=O)CN(c2cc(C)cc(C)c2)S(C)(=O)=O)CC1 > 76.9 µM
O=C(NCc1ccco1)c1nn(-c2ccccc2)c(=O)c2ccccc12 > 76.9 µM
NC(=O)c1c(NC(=O)Cc2cccs2)sc2c1CCC2 > 76.9 µM
CCc1ccc(C2C3=C(CC(C)(C)CC3=O)Nc3c2c(=O)[nH]c2nc(C)nn32)cc1 (stereo not drawn) > 76.9 µM
CN(C)c1ccc(-c2nnc(-c3ccc(S(=O)(=O)C(F)F)cc3)o2)cc1 > 76.9 µM
CC(=O)c1cccc(NC(=O)COc2ccc(S(=O)(=O)N3CCCCC3)cc2)c1 > 76.9 µM
Cc1ccnc(NC(=O)c2cc(S(=O)(=O)N3CCCCC3)ccc2Cl)c1 > 76.9 µM
C=CCNC(NC(=O)c1ccccc1)(C(=O)OCC)C(F)(F)F (stereo not drawn) > 76.9 µM
CCOc1ccccc1C(=O)Nc1ccc2nc(N3CCN(c4ncccn4)CC3)cc(C)c2c1 > 76.9 µM
CCN(C(=O)CSc1nc2cc(C(=O)OC)ccc2c(=O)n1Cc1ccco1)c1cccc(C)c1 > 76.9 µM
Cn1c(C2=C(O)CN(c3ccc4c(c3)OCCO4)C2=N)nc2ccccc21 > 76.9 µM
CCC(C)NC(=O)C1CCN(C(=O)N(C)C)CC1 (stereo not drawn) > 76.9 µM
COc1cc(Cl)c(C)cc1NC(=O)COc1cc(C)nc(C(C)C)n1 > 76.9 µM
COc1ccccc1NC(=O)N1CCCC1C(=O)NCc1ccc(F)cc1 (stereo not drawn) > 76.9 µM
Cc1ccc(C)c(NC(=O)Cn2nc(C)c3ccccc3c2=O)c1 > 76.9 µM
Cc1cc(NC(=O)CSc2nc(-c3ccco3)cc(C(F)(F)F)n2)no1 > 76.9 µM
Cc1ccc(S(=O)(=O)NCCNC(=O)N2CCOCC2)cc1 > 76.9 µM
CNC(=O)NC(=O)COC(=O)CCCOc1ccc(OC)cc1 > 76.9 µM
Cn1nnnc1SCC(=O)Nc1ccc(Br)cc1Cl > 76.9 µM
O=C(CC(c1ccco1)C1CCCCC1=O)c1ccco1 (stereo not drawn) > 76.9 µM
CC(C)[C@H](NC(=O)NC1CCCc2ccccc21)C(=O)O (stereo partly drawn) > 76.9 µM
Cn1ncc(C#N)c1NC(=O)c1nn2cccnc2c1Cl > 76.9 µM
O=C(CCN1C(=O)COc2ccccc21)NCCC1=CCCCC1 > 76.9 µM
O=S(=O)(NCc1csc(-c2cccnc2)n1)c1ccc2c(c1)OCCO2 > 76.9 µM
O=C(Nc1ccccc1NC(=O)NC1CCCCC1)NC1CCCCC1 > 76.9 µM
CCCCSc1nnc([C@@H]2CCCN2C(=O)OC(C)(C)C)o1 > 76.9 µM
CCc1cccc(NS(=O)(=O)c2ccc3c(c2)oc(=O)n3C)c1 > 76.9 µM
Cn1c(=O)c2c(nc(N3CCOCC3)n2CC(=O)c2ccccc2)n(C)c1=O > 76.9 µM
CCOC(=O)N1CCN(CC(=O)Nc2ccc(C)c(Br)c2)CC1 > 76.9 µM
O=S1(=O)N=C(N2CCN(Cc3ccccc3)CC2)c2ccccc21 > 76.9 µM
Nn1cc(-c2ccccc2)nc1SCC(=O)N1CCN(S(=O)(=O)c2ccccc2)CC1 > 76.9 µM
NC(=O)CS(=O)(=O)c1nc2ccccc2n1Cc1ccccc1F > 76.9 µM
O=C1CCCCCN1Sc1ccccc1 > 76.9 µM
